Measurements as given in PMC9600399.
No constants are given. Whether binding was seen depends on the method and setting. In cells and extracts the contact can be indirect. Some binding calls cover weakened binding; strength is not graded here. One block for each substance: values may come before it.

Chains of the proteins cited; added tags and fusions are not shown. Lines headed by an entry give the natural chain unless they say otherwise; changes in a name come on top. Residues count along the entry.
UniProt P28066: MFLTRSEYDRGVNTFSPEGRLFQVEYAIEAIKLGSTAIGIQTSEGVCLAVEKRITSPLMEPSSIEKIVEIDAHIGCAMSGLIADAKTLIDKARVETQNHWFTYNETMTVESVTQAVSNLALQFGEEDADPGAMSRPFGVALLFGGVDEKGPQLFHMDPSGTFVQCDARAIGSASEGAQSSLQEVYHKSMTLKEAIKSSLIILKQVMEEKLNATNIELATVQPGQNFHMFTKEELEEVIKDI
GST–PSMA5 188-241: residues 188-241 of P28066
UniProt P38936: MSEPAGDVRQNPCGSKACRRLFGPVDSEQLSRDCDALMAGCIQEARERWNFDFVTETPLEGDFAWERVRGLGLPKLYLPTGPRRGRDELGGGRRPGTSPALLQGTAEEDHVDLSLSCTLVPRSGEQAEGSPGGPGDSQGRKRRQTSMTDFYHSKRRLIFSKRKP
UniProt P01100: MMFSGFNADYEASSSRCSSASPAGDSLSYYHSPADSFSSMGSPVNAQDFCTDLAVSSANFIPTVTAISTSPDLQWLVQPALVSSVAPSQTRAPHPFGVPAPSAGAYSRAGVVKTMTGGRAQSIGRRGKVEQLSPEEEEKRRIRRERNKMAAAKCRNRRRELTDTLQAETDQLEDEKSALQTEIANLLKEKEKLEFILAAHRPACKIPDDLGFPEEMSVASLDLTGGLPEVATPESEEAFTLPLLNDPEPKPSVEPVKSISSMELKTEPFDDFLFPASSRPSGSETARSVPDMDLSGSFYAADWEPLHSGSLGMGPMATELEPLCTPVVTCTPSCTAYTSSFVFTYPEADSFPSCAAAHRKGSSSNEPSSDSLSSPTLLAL

What was measured:
[1] = biological target: GST–PSMA3 187–255 (UniProt P25788); assay: pull-down; recombinant GST proteins on glutathione agarose incubated with HEK293 lysate (overexpressing 6xmyc p21 or naive) for 16 h at 4 °C; six washes with NP40 buffer; elution with 10 mM glutathione; immunoblot; only the target purified
[2] = biological target: GST–PSMA5 188-241 (UniProt P28066); assay: as above
[3] = biological target: PSMA3 Ct 187–255 fragment fused to Luc2 (UniProt P25788); assay: split reporter; split Gaussia luciferase (p21-Luc1, receptor-Luc2); bioluminescence of cell lysates with 20 μM coelenterazine, integrated over 10 s
[4] = biological target: full-length PSMA3 fused to Luc2 (UniProt P25788); assay: as above
[5] = biological target: PSMA5–FPC (UniProt P28066); assay: split reporter; BiFC in co-transfected cells with H2B–RFP, 48 h post-transfection; flow cytometry of at least 10,000 cells, BiFC signal normalised to RFP; fluorescence microscopy
[6] = biological target: HA–PSMA3–FPC (UniProt P25788); assay: as above
[7] = biological target: PSMA5-3short (UniProt P28066); assay: as above
[8] = biological target: PSMA5-3long (UniProt P28066); assay: as above

- binding [1]: binds
- binding [2]: no binding
Substance: p53, endogenous (from UniProt P04637 1-393)

- binding [3]: binds
- binding [4]: binds
Substance: p21 fused to Luc1 (from UniProt P38936 1-164)

- binding [1]: binds
- binding [2]: no binding
Substance: c-Fos, endogenous (from UniProt P01100 1-380)

- binding [5]: no binding
- binding [6]: binds
- binding [7]: binds
- binding [8]: binds
Substance: 6xMyc-p21 FPN (from UniProt P38936 1-164)
